The results in this text go back to ChEMBL document CHEMBL4888484, “Replenishing the malaria drug discovery pipeline: Screening and hit evaluation of the MMV Hit Generation Library 1 (HGL1) against asexual blood stage Plasmodium falciparum ,using a nano luciferase reporter read-out” (2022).

The campaign covered roughly 150,000 compounds. About 540 (0.36%) showed an effect of 50% or more. The list shows a part of the results.

This assay deals with Plasmodium falciparum. Put plainly: Primary screen in NF54 nanoGlo assay, in single point, at 2uM, 72h; a lower Z score goes with more inhibition. Format: functional, Erythrocyte. Particulars: timepoint 72 hour.
As usually defined, the % Inhibition is the change of the read-out against control, counted positive when it falls. `CC1OCCC12CN(C(=O)C(C)(O)C(C)C)CCO2` (configuration not stated): the “% Inhibition” value is -9% and the Z score stood at 1.76.
Turning to `C#CCCC1(CCC(=O)N2CC(C)OC3(CCOC3)C2)N=N1` (configuration not stated), the “% Inhibition” value is 0% and the Z score was found to be 0.01.
Regarding `O=C(c1cnccn1)N(Cc1ccsc1)CC(F)(F)F`, the “% Inhibition” value turned out to be 0% and the Z score is listed as -0.02.
Consider `COc1ccccc1OCCn1cnc2c1CCNC21CCOCC1`, for which the “% Inhibition” value is given as -4% and the Z score came out at 0.85.
For the compound `CC(=O)N[C@@H](Cc1c[nH]cn1)c1nc(C)nn1-c1ccc2c(c1)CCC2`, the “% Inhibition” value was -15% and the Z score is on record as 1.76.
The corresponding values for `CC1CCc2c(F)cccc2C1NC(=O)C(=O)Nc1ccon1` (configuration not stated) are 0% and 0.03.
As for `O=S(=O)(c1cc(F)ccc1Cl)N1CC[C@H](c2ncccn2)C1`, the “% Inhibition” value is listed as -1% and the Z score is given as 0.13.
As for `Cc1c(C(=O)N2C[C@@H]3CC[C@H]2CN(CC(=O)N(C)C)C3)[nH]c2c(F)cccc12`, the “% Inhibition” value is recorded as -12% and the Z score is 2.12.
The corresponding values for `Cc1cc(C)n2cc(CNC(=O)Cc3nc4nc(C)cc(O)n4n3)nc2c1` are -4% and 0.62.
`Nc1nonc1-c1noc(-c2cc(Br)ccc2OCc2ccccc2Cl)n1`: the “% Inhibition” value is listed as 6% and the Z score is listed as -0.76.
Turning to `COc1ccc(N2CCN(C(=O)CN3C(=O)C4CC=CCC4C3=O)CC2)cc1` (configuration not stated), the “% Inhibition” value is recorded as -11% and the Z score is 1.78.
In the case of `O=C(N1CCCCCC1)N1CCN(S(=O)(=O)c2ccccc2)CC1`, the “% Inhibition” value is 1% and the Z score was -0.16.
`C[C@H](OC(=O)c1cnc2c(c1)ncn2C)c1nccs1`: the “% Inhibition” value is -12% and the Z score was determined as 1.2.
On to `CCOc1cc(CNC(=O)N2CCCN(c3ccnc(C)c3)CC2)ccc1OC`, for which the “% Inhibition” value is reported as -6% and the Z score was 0.83.
Take `CC(=O)N[C@H]1[C@H](NC(=O)c2sc(C)nc2C)[C@@H]2CCO[C@@H]21`: the “% Inhibition” value is recorded as 6% and the Z score is reported as -1.13.
Turning to `Cc1ccc(N2CC[C@H]3[C@H](CCC(=O)N3CCCn3ccnc3)C2)nn1`, the “% Inhibition” value is recorded as -11% and the Z score worked out at 1.06.
As for `CC(C)CN1C[C@@H](NCc2ccc(N(C)C)cc2)C[C@H]1C(=O)NCCc1ccccc1F`, the “% Inhibition” value was -1% and the Z score was determined as 0.11.
Consider `CCCCc1ccc(NC(=O)c2coc(NC(=O)c3cc(C)on3)n2)cc1`, for which the “% Inhibition” value is recorded as 5% and the Z score is reported as -0.67.
For `CN(C(=O)CNC(=O)c1c(Cl)cnn1C)C1CCCCC1` the same measures were -6% and 0.82.
`CC1CC1c1ccc(CN(C)Cc2cccnc2)o1` (configuration not stated): the “% Inhibition” value is recorded as -4% and the Z score stood at 0.4.
For `COc1ccc(/C=C\c2onc(C)c2NC(C)=O)cc1S(=O)(=O)NC1CCCCCCC1` the same measures were 4% and -0.7.
For `CC(NCCCOC1CCOC1)c1cc2ccccc2o1` (configuration not stated), the “% Inhibition” value is reported as -12% and the Z score came out at 1.06.
Turning to `CC(C)n1cnnc1CN1CCC2(CCC(=O)N(CCc3ccccc3)C2)CC1`, the “% Inhibition” value came to 0% and the Z score is listed as 0.04.
For `Fc1cc(CNCCC(F)(F)F)ccc1OC(F)F`, the “% Inhibition” value is given as -15% and the Z score is 1.25.
As to `COc1cccc(C(=O)NCc2cccnc2-c2ccc(C)cc2)c1`, the “% Inhibition” value is reported as -7% and the Z score is 0.97.
For `O=C(c1cccnc1)N1CC[C@H](c2nnc(Cc3ccccc3)o2)C1` the same measures were 1% and -0.17.
For `CCN=C(NCc1noc(C)n1)N1CC=C(c2ccccc2)CC1` the same measures were 14% and -1.53.
For the compound `COc1cccc(CNC(=O)[C@H](C)NS(=O)(=O)c2ccccc2C(F)(F)F)c1`, the “% Inhibition” value is -2% and the Z score was 0.18.
Regarding `COc1ccc(-c2cccc3c2CCN(C(=O)C(C)C)[C@@H]3C)cc1`, the “% Inhibition” value was 1% and the Z score is -0.13.
For `Oc1cccc(CN2CCCC23CCN(c2cnc4ccccc4n2)CC3)c1` the same measures were -4% and 0.47.
With `C#C[C@H](C)NS(=O)(=O)CC1CCCCC1`, the “% Inhibition” value was -8% and the Z score turned out to be 1.01.
For the compound `O=C(CC[C@@H]1NC(=O)NC1=O)NCCn1cc(Cl)cn1`, the “% Inhibition” value is 2% and the Z score is on record as -0.15.
Consider `CN(c1ncnc2ccsc12)[C@H]1CCN(CC(F)(F)F)C1=O`, for which the “% Inhibition” value is listed as 3% and the Z score is -0.58.
For `Cc1cc(NC(=O)[C@H](C)N(C)Cc2ccc3c(c2)OCO3)on1` the same measures were -43% and 5.01.
As for `Cc1cc(C(=O)N2CCc3ccc(Br)cc32)on1`, the “% Inhibition” value is recorded as -14% and the Z score is listed as 2.65.
The corresponding values for `O=C(c1c[nH]c2ccccc12)N1CC[C@H](c2nc(-c3ccccc3)no2)C1` are 3% and -0.4.
For the compound `C[C@](NC(=O)CCc1ccco1)(C(N)=O)c1cccc(Cl)c1`, the “% Inhibition” value is recorded as -8% and the Z score came out at 0.85.
The corresponding values for `O=C1C[C@@H](C(=O)N2CC(Cc3ccoc3)C2)NC(=O)N1` are -12% and 1.39.
For the compound `CC(C)c1cc(CN[C@@H](C)c2cc(Cl)cc(Cl)c2)on1`, the “% Inhibition” value is recorded as -4% and the Z score is listed as 0.61.
For the compound `COc1cc(NC(=O)Cn2c(=O)n(Cc3cccc(Cl)c3)c(=O)c3ccccc32)cc(OC)c1`, the “% Inhibition” value is recorded as 9% and the Z score was -1.06.
In the case of `CCc1cnccc1C(=O)N(CC1CC1)CC(F)(F)F`, the “% Inhibition” value is -3% and the Z score is listed as 0.39.
